Results taken from PubChem BioAssay AID624296 (National Center for Advancing Translational Sciences (NCATS), 2012).
About 9,900 (2.8%) of roughly 350,000 compounds were called active. Inconclusive means that the source gave no clear call. Such entries were picked first, then a sample of the others. Calls come from the whole dose curve; as a rule, active = well fitted activation curve with a large enough effect; inconclusive = small, poorly fitted or top-dose-only effect; inactive = no such curve, though single readings can be large or run the other way. No potency is given beside an inconclusive call; the fits are too rough.

Assay: A quantitative high throughput screen for small molecules that induce DNA re-replication in MCF 10a normal breast cells. For activity, positive = re-replication: % of control where 0% means no effect. Note: nearly all actives have a fitted effect of over 50% in size.
Settings: MCF 10A DNA re-replication, Hoechst nuclear intensity, 48 h; activity, positive = re-replication: at 46.1 µM (top of the series)
Potency is the fitted concentration of half-maximal effect; tags give direction and shape of the fitted curve.

**Q.** With `Cc1cc(C)c2c(c1)C1C=CCC1C(c1ccc(S(=O)(=O)N3CCOCC3)cc1)N2` (stereo unspecified) as the compound, how does the Potency read?
**A.** inconclusive [activator, single point]

**Q.** Which Potency does the source give for `COc1ccc(/C(N)=N/OC(=O)CCCc2ccccc2)cc1OC` here?
**A.** inconclusive [activator, single point]

**Q.** With `Cc1nn(-c2cc(N3CCCC3)ccc2[N+](=O)[O-])c(=O)c2ccccc12` as the compound, how does the Potency read?
**A.** inconclusive [activator, partial curve, poor fit]

**Q.** For `COc1ccc(CNC(=O)COC(=O)CCc2c[nH]c3ccccc23)cc1`, which Potency is on record?
**A.** inconclusive [activator, single point]

**Q.** For `CC1(C)C2CC[C@]1(C)[C@@H](O)C2`, which “activity, positive = re-replication” value is on record?
**A.** inactive: -2.24%

**Q.** With `Cc1ccc(S(C)(=O)=O)cc1C(=O)Nc1ccc(S(=O)(=O)Nc2nccs2)cc1` as the compound, how does the Potency read?
**A.** inconclusive [activator, partial curve, poor fit]

**Q.** With `CC(C)=CCC/C(C)=C/CNC(=O)C[C@H]1C[C@H](C(=O)N2CCOCC2)[C@@]2(C)c3[nH]c4cc(-c5ccco5)ccc4c3CCN2C1=O` as the compound, how does the Potency read?
**A.** inconclusive [activator, single point]

**Q.** With `Cc1ccc(NC(=O)c2ccc(NCCN)c([N+](=O)[O-])c2)cc1` as the compound, how does the “activity, positive = re-replication” value read?
**A.** inactive: 5.17%

**Q.** For `CCCn1c(SCc2nc3sc(C)c(C)c3c(=O)[nH]2)nc2ccccc2c1=O`, which Potency is on record?
**A.** inconclusive [activator, full curve, poor fit]

**Q.** Which “activity, positive = re-replication” value does the source give for `Cc1nc(N)sc1-c1ccccc1` here?
**A.** inactive: -9.51%

**Q.** Which “activity, positive = re-replication” value does the source give for `C=CCNc1nc(Nc2ccc([N+](=O)[O-])cc2)nc(N2CCCC2)n1` here?
**A.** inactive: 2.84%

**Q.** Which Potency does the source give for `O=C1CSc2ccc(C(=O)Nc3cccc(S(=O)(=O)Nc4ccc(Br)cc4)c3)cc2N1` here?
**A.** inconclusive [activator, partial curve, poor fit]

**Q.** With `CCOc1ccc(C(=O)COC(=O)c2cc([N+](=O)[O-])ccc2N2CCOCC2)cc1` as the compound, how does the Potency read?
**A.** inconclusive [activator, single point]

**Q.** With `CCOC(=O)c1c(NC(C)=O)sc(C(=O)NC2CCCC2)c1C` as the compound, how does the “activity, positive = re-replication” value read?
**A.** inactive: 7.09%

**Q.** For `CCC(=O)N1c2ccccc2NC2=C(C(=O)CCC2)C1c1ccc(N(C)C)cc1` (stereo unspecified), which “activity, positive = re-replication” value is on record?
**A.** inactive: 3.77%

**Q.** For `COc1ccc(-c2noc(-c3ccccc3C(=O)N3CCOCC3)n2)cc1`, which “activity, positive = re-replication” value is on record?
**A.** inactive: 19.7%

**Q.** For `COc1ccc2c(c1)O[C@H](c1ccc3c(c1)OCO3)[C@@H](OC(=O)N[C@H]1CCCc3ccccc31)C2=O`, which “activity, positive = re-replication” value is on record?
**A.** inactive: 1.52%

**Q.** Which Potency does the source give for `CCC(=O)Nc1ccc(N2CCN(Cc3ccccc3)CC2)cc1` here?
**A.** active: 8.2 µM

**Q.** For `COc1cc(/C=C/C(C)=O)cc(OC)c1OC`, which Potency is on record?
**A.** inconclusive [activator, single point]

**Q.** For `O=C(CN1C(=O)NC2(CCCC2)C1=O)OCc1ccc(Br)cc1`, which “activity, positive = re-replication” value is on record?
**A.** inactive: 5.47%

**Q.** Which Potency does the source give for `Cc1ccc(N2C(=O)CC(C)(C)CC2=O)cc1Cl` here?
**A.** inconclusive [activator, single point]

**Q.** For `O=C(NCCc1ccccc1)C1CCC(=O)N(CCCN2CCCC2=O)C1` (stereo unspecified), which “activity, positive = re-replication” value is on record?
**A.** inactive: -2.95%

**Q.** For `COCCn1c(=O)[nH]c(=O)c2cc(C(=O)c3cc(OC)ccc3O)cnc21`, which Potency is on record?
**A.** inconclusive [activator, single point]

**Q.** For `Cc1ccc(-c2csc(NC(=O)C3CC(=O)N(Cc4ccco4)C3)n2)cc1` (stereo unspecified), which “activity, positive = re-replication” value is on record?
**A.** inactive: 2.52%

**Q.** For `CCOC(=O)c1c(C)[nH]c2c1-c1ccccc1C(=O)C2=O`, which Potency is on record?
**A.** active: 1.3 µM

**Q.** Which “activity, positive = re-replication” value does the source give for `CCCCN(CCCNC(=O)CN1C(=O)COc2ccc(S(=O)(=O)N3CCC(C)CC3)cc21)Cc1ccccc1` here?
**A.** inactive: -2.55%

**Q.** With `O=C(NCC1CCCO1)C1CCCCN1S(=O)(=O)c1ccc(F)cc1` (stereo unspecified) as the compound, how does the Potency read?
**A.** inconclusive [activator, partial curve, poor fit]

**Q.** Which Potency does the source give for `COc1ccc(C(=O)c2ccc(OC)c(OC)c2OC)cc1` here?
**A.** active: 3.66 µM

**Q.** For `CCC(c1ccccc1)C(CC)c1cc(O)c(O)c(O)c1` (stereo unspecified), which Potency is on record?
**A.** inconclusive [activator, single point]

**Q.** Which Potency does the source give for `CCn1c(=O)c(C(=O)CN2CCN(S(=O)(=O)c3cc(C)ccc3C)CC2)c(N)n(Cc2ccccc2)c1=O` here?
**A.** inconclusive [activator, partial curve, poor fit]

**Q.** With `CC(=O)Nc1cccc(NC(=O)c2cccc(S(=O)(=O)N3CCN(Cc4ccccc4)CC3)c2)c1` as the compound, how does the “activity, positive = re-replication” value read?
**A.** inactive: 13.6%

**Q.** For `CN(C)CCCn1c(SCC(=O)Nc2nc(-c3cccc(Br)c3)cs2)nc2ccccc2c1=O`, which Potency is on record?
**A.** inconclusive [activator, single point]

**Q.** Which Potency does the source give for `CCOC(=O)Cn1nnnc1CN(Cc1ccc(OC)cc1)Cc1cc2cc(C)ccc2[nH]c1=O` here?
**A.** active: 23.1 µM

**Q.** For `O=C(Cn1c(=O)n(Cc2ccco2)c(=O)c2c3c(sc21)CCCCC3)c1ccccc1`, which Potency is on record?
**A.** inconclusive [activator, full curve]

**Q.** For `COC(=O)c1ccccc1NC(=O)CN(C)S(=O)(=O)c1ccc(OC)c(C)c1`, which “activity, positive = re-replication” value is on record?
**A.** inactive: 26.6%

**Q.** With `COc1ccc(S(=O)(=O)Cc2ccc(C(=O)N3CCN(c4ccc(Cl)cc4)CC3)o2)cc1` as the compound, how does the Potency read?
**A.** inconclusive [activator, single point]

**Q.** For `N#Cc1ccc(COc2cccnc2[N+](=O)[O-])cc1`, which “activity, positive = re-replication” value is on record?
**A.** inactive: 3.76%

**Q.** For `Cc1nn(-c2ccc(C(=O)NCC(c3ccco3)N3CCCC3)cc2)c(C)c1Cl` (stereo unspecified), which Potency is on record?
**A.** inconclusive [activator, full curve, poor fit]

**Q.** For `S=C(NCc1ccco1)Nc1ccc(Cl)c(Cl)c1`, which “activity, positive = re-replication” value is on record?
**A.** inactive: 0.0426%

**Q.** With `CCOC(=O)N1CC=C2C(C#N)=C(N)C(C#N)(C#N)[C@H](c3ccc(OC(C)C)c(OCC)c3)[C@H]2C1` as the compound, how does the Potency read?
**A.** inconclusive [activator, partial curve, poor fit]

**Q.** Which Potency does the source give for `O=C(NCc1ccc(F)cc1)C1CCCN1C(=O)Nc1ccccc1` (stereo unspecified) here?
**A.** inconclusive [activator, single point]

**Q.** Which “activity, positive = re-replication” value does the source give for `COc1cc(OC)cc(C(=O)NC(=S)NCCc2ccccc2)c1` here?
**A.** inactive: 1.43%

**Q.** Which Potency does the source give for `O=[N+]([O-])c1ccc(Nc2cccc(F)c2)nc1` here?
**A.** active: 0.731 µM

**Q.** Which Potency does the source give for `Cc1ccccc1Nc1ncnc2c1cnn2-c1ccccc1` here?
**A.** inconclusive [activator, single point]

**Q.** For `COc1ccc(CCc2nnc(N)s2)cc1OC`, which “activity, positive = re-replication” value is on record?
**A.** inactive: -9.82%

**Q.** For `COc1cc(C(C)=O)ccc1OCC(O)CN(CCO)Cc1ccccc1` (stereo unspecified), which Potency is on record?
**A.** inconclusive [activator, single point]
